# Laboratory results from the supplement of paper PMC12217912.
# The other results are listed elsewhere or left out. The full chains were built here from the parent and the listed change. Inactive controls read about 0.05.
# B1: TEV protease; numbered along this chain (parent)
# chain: MGESLFKGPRDYNPISSSICHLTNESDGHTTSLYGIGFGPFIITNKHLFRRNNGTLVVQSLHGVFKVKDTTTLQQHLVDGRDMIIIRMPKDFPPFPQKLKFREPQREERICLVTTNFQTKSMSSMVSDTSCTFPSGDGIFWKHWIQTKDGQCGSPLVSTRDGFIVGIHSASNFTNTNNYFTSVPKNFMELLTNQEAQQWVSGWRLNADSVLWGGHKVFMVKPEEPFQPVKEATQL
# Variants of: B1
# Assay: raw area under fraction-flipped curve 0-4 h after induction (AUC4h, not background-subtracted), DNA-recorder readout of cleavage of the substrate (dimensionless); higher = more cleavage of the substrate by the protease variant
# Conditions: temperature: 34 °C; time window: 0-4 h after rhamnose induction
# 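Further: Bxb1 expression induced with 0.2% (w/v) L-rhamnose at OD600 near 0.5, cultures sampled hourly, flipped fraction per protease–substrate barcode pair counted by paired-end Illumina sequencing.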
Variant,area with substrate ENLDFQS,area with substrate ENLEFQS,area with substrate ENLFFQS,area with substrate ENLIFQS,area with substrate ENLKFQS,area with substrate ENLLFQS,area with substrate ENLNFQS,area with substrate ENLSFQS,area with substrate ENLVFQS,area with substrate ENLGFQS
V58M,0.0605,0.0589,0.0591,0.0979,0.0903,0.0699,0.0624,0.079,0.105,
V58D,,0.0247,,0.0453,0.0559,,,,,0.0563
V58G,0.0499,,0.0632,,0.0524,,,,,
V58L,0.0547,0.0635,0.0696,0.0551,,0.0417,,0.0779,,0.0794
V58S,0.0598,0.064,,0.0735,0.0687,,,0.0603,,
D79E,,0.0617,,,,,,,,
V78I,0.0552,0.0733,0.0784,0.0686,0.0898,0.0723,0.0562,0.0647,,
E189Y,0.034,0.082,,0.0741,0.0802,,0.0504,,,
G153F,0.0684,,0.0419,,0.0641,,,,,
G153M,0.0544,0.0468,,,0.0519,0.0299,0.0295,,,
W203D,0.0518,,0.101,,,,,,,
W203P,0.0573,,0.0633,,,,,0.0544,,
W141N,0.0566,0.0439,0.0568,,0.0647,0.063,0.0551,,,
T147V,0.0622,0.0628,0.073,0.065,0.0571,,,0.0737,,
G2A,0.0531,,0.0962,,0.0848,0.073,0.0661,0.0516,0.111,0.0788
G2T,0.06,,,,0.0816,,0.0745,,,
G2I,0.063,,0.133,,0.108,,,0.0381,,
W199Y,0.0632,,0.0648,,0.0664,0.073,,,,0.082
S154A,0.0609,,0.0761,0.0802,0.0744,0.0685,0.0663,,,
S154V,0.0587,,0.0673,0.0664,,,0.073,,,
Q194A,0.0499,,0.116,,0.086,,,,,0.063
N178C,0.067,,,,0.0911,,,0.065,,
R81P,0.0721,,0.0715,,,,,,,
P222L,0.054,,,,0.101,0.0727,,,0.0597,
G28Y,0.0482,0.0567,0.0726,0.0578,0.0691,,,0.0664,,

Variant,area with substrate ENLDFQS,area with substrate ENLEFQS,area with substrate ENLFFQS,area with substrate ENLIFQS,area with substrate ENLKFQS,area with substrate ENLLFQS,area with substrate ENLNFQS,area with substrate ENLSFQS,area with substrate ENLVFQS,area with substrate ENLGFQS
F95L,0.0541,,0.0929,,0.0744,0.0475,,,,
F101E,0.0576,0.0753,0.0413,,0.0626,,0.0505,,,
P94V,0.0585,,,0.105,0.0937,,,0.0716,,
N172R,0.0639,,0.0446,,,,0.0568,,,
H215F,0.0811,0.0671,0.071,0.0969,0.0549,,,0.0528,,
H215I,0.0863,,,,0.0578,,,,,
F163P,0.0676,,,0.0699,0.0717,,0.0936,0.0673,,
F163Y,0.0634,,0.0784,0.0357,,0.0884,0.0657,0.0672,,
F163K,0.0755,0.124,0.0741,,0.0779,,0.071,0.0704,0.0803,
F163S,0.0715,,,,,,,,,
F140S,0.051,,,0.0586,0.0634,,,,,
R87D,0.0449,,0.111,,0.0456,,,,,0.0598
R87V,,0.0029,,,,,0.0701,,0.0579,
R87N,0.0526,,0.0732,,0.0949,,,0.0442,,
N193K,0.0432,,,,0.101,0.072,,,,
N193Y,,0.0889,0.0639,,,0.0624,,,0.0641,
L211N,0.0705,0.14,0.102,,,,0.0728,,0.0847,
D27E,0.0767,,,,0.055,0.0825,,,,
C131K,0.061,,0.0739,,,,0.0694,,,
C131E,0.059,,,,,0.0555,,,,
W212A,0.0768,,0.0947,0.0523,,,,0.0448,,
T119A,0.0632,,0.0882,0.0899,0.0753,0.0503,,0.068,,
T119G,0.0788,0.0454,,0.0858,,,0.0489,,,
E195T,0.0054,,,0.0762,0.0977,,0.0633,0.0688,0.104,
E195H,0.068,,0.137,0.0926,0.0828,0.073,,,,0.0415

# Same assay, conditions: temperature: 34 °C; time window: 0-4 h after rhamnose induction
Variant,area with substrate ENLHFQS,area with substrate ENLPFQS,area with substrate ENLRFQS,area with substrate ENLTFQS,area with substrate ENLWFQS,area with substrate ENLMFQS,area with substrate ENLQFQS
V58D,0.0685,0.0515,,,,,
V58G,0.0474,,0.0611,0.0473,,,
V58L,0.0628,0.076,,,0.106,,
V58S,0.0584,,0.0662,,,,
D79E,0.0649,,,,0.0683,,
V78I,0.0671,0.0551,0.0566,,0.0704,0.0859,
E189Y,,0.05,,,,,
G153F,0.0515,,,,,,
G153M,0.0522,,0.0848,,0.0543,,
W203D,0.0591,,0.0587,,0.0763,,
W203P,,,0.0616,,,0.0455,
W141N,0.0551,0.0578,0.0567,,,,
T147V,,,,,,0.0646,0.06
G2A,0.0628,,,,0.0978,,
G2T,0.0848,,,,,,
G2I,0.081,,,,,,
W199Y,0.0529,0.0812,,0.0571,0.0706,,0.0684
S154A,0.0657,0.0693,0.078,,,,0.0753
S154V,0.0636,0.0728,,,0.0617,,
Q194A,0.0713,0.0515,,,,0.0903,0.0674
R81P,,,,,0.0563,,

Variant,area with substrate ENLHFQS,area with substrate ENLPFQS,area with substrate ENLRFQS,area with substrate ENLTFQS,area with substrate ENLWFQS,area with substrate ENLMFQS,area with substrate ENLQFQS
P222L,0.07,,,,,,
G28Y,,,0.0668,,,,0.0707
F95L,,,,,0.078,,
F101E,,0.0593,0.035,,0.0451,,
P94V,0.0958,,,,,,
N172R,,0.0405,0.0648,,,,
H215F,0.069,,,,0.0662,,0.06
F163P,,0.0657,,,,,
F163Y,0.0716,0.0469,0.0626,,0.0691,0.0859,0.0599
F163K,0.0533,,,,0.0573,0.0783,
F140S,0.0532,,,,,0.0618,
R87D,,,,,0.0458,,
R87V,0.0597,,,,,0.0599,
N193Y,0.0545,,,,0.0715,,
D27E,0.066,0.122,0.0862,0.0712,,,
C131K,0.0784,0.0405,0.0885,,,,
W212A,,,,,0.0666,,
T119A,0.0679,,0.0757,,0.0669,,
T119G,0.0648,,,,,,
E195T,,,,,,,0.0949
E195H,,,0.0584,,,,
